Among all 45,000 compounds or so, about 65 (0.1%) were called active. Calls follow the shape of the dose curve; as a rule, active = well fitted activation curve with a large enough effect; inconclusive = small, poorly fitted or top-dose-only effect; inactive = no such curve, though single readings can be large or run the other way. This is one part of the list.
These compounds were tested against Galactocerebrosidase (Homo sapiens) (UniProt P54803) (assay: A Novel Cell-Based Assay to Identify Small Molecules for B -Galactocerebrosidase). Conditions: 145M-Twi-hGALC-G270D cells (Twitcher mouse brain line with human GALC G270D), HMU-beta-Gal fluorescence, 48 h; series mostly up to 57.5 µM; activation: at the top concentration.
Sequence of UniProt P54803 (P54803 whole entry, looked up): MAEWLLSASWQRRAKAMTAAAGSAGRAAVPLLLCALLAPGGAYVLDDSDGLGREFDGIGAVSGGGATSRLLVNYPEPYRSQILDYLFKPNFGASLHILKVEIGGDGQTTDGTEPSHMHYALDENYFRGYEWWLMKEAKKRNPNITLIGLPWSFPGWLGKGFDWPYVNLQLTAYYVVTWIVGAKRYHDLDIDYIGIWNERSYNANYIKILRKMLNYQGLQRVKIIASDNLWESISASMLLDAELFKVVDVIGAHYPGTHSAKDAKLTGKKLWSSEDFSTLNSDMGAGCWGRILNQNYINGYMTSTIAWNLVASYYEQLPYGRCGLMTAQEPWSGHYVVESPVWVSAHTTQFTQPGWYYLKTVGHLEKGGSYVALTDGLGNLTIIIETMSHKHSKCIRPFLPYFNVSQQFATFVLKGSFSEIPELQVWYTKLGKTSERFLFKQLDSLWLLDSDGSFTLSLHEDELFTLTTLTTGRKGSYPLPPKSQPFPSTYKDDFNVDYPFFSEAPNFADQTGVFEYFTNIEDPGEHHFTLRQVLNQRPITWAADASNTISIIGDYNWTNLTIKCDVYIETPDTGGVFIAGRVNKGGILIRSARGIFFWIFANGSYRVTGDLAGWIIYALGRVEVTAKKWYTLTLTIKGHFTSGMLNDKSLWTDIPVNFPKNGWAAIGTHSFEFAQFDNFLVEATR
How it was run: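 Brain-derived Twitcher mouse 145M-Twi cells stably expressing human GALC-G270D or wild-type GALC, treated live, then residual GALC activity read by fluorescence of HMU-b-Gal substrate (0.1 mM final) in citrate-phosphate buffer pH 5.2 with sodium taurocholate. Signal increase indicates enhancement.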
Also: 0% is about no effect; nearly all actives have a fitted effect of over 65% in size.

activation, inactive:
COc1cccc(NC(=O)Cn2nc(C)c3c(C)n(-c4ccccc4)nc3c2=O)c1 -3.97%
CCC(Sc1nnc(-c2ccc(OC)c(OC)c2)c(-c2ccc(OC)c(OC)c2)n1)C(=O)NC1CCCC1 (configuration not stated) -18.7%
O=C(NCCc1ccccc1)c1ccc(Cn2c(SCc3ccccc3)nc3cccnc32)cc1 -9.6%
Cc1cccn2c(=O)cc(CSc3nnc(NC(=O)c4ccc(F)cc4)s3)nc12 -10.4%
Cc1cccc(C)c1NC(=O)c1sc(-n2nc(C)c(Cc3ccc4c(c3)OCO4)c2C)nc1C 0.361%
CCC(C(=O)Nc1ccc(C)c(Cl)c1)n1c(=O)c(-c2ccccc2NC(C)=O)nc2ccccc21 (configuration not stated) -12.6%
COc1ccc(Cl)cc1NC(=O)Cn1c(=O)c2ccccc2n2nncc12 -15.3%
O=C1C(O)=C(O)C(=O)C(O)=C1O -1.23%
Clc1ccc(NCc2nc3ccccc3n2CCOc2ccccc2)cc1 -10.9%
Cc1nc(-n2nc(C)c(CCC(C)C)c2C)sc1C(=O)Nc1cccc(Cl)c1 -1.02%
CCN(C(=O)CSc1nc2ccccc2nc1Cc1ccc(F)cc1)c1cccc(C)c1 -7.63%
Cc1nccn1CC1CCc2c(c3ccccc3n2C)C1=O (configuration not stated) 6.72%
Cc1ccc(NC(=O)Cn2nc3c(cc2=O)CCCC3)cc1Cl 1.15%
COc1cc(CNCCSc2nnnn2C)ccc1OCc1ccc(Cl)cc1Cl 5.58%
COc1cc(NC(=O)N2CCC(CN3CCCCCC3)CC2)cc(OC)c1OC -6.64%
CCc1ccc(NC(=O)Cn2cc(S(=O)(=O)c3ccc(F)cc3)c(=O)c3cc(OC)ccc32)cc1 -13.1%
CC(=O)c1ccc(NC(=O)CCc2c(C)nn(-c3ccc4nnc(C)n4n3)c2C)cc1 2.07%
CC(C)CC(C(=O)NCC1CCN(Cc2ccc(F)cc2)CC1)N1Cc2ccccc2C1=O (configuration not stated) -7.92%
COc1ccc(NC(=O)C2CCC(CNS(=O)(=O)c3ccc(Br)s3)CC2)c(OC)c1 (configuration not stated) -7.71%
CCn1cc(C(=O)N2CCN(c3cc(Cl)ccc3C)CC2)c(=O)c2cc(S(=O)(=O)N3CCCCC3)ccc21 -10.5%
O=C(NCCn1cc(SCc2ccc(F)cc2)c2ccccc21)c1cccs1 1.23%
CC(C)Nc1nc2c(-c3cccc(Br)c3)nnn2c2ccccc12 -11.4%
Cc1ccccc1Cn1c(=O)n(CCC(=O)NCc2ccco2)c(=O)c2sccc21 -14.7%
COC(=O)C1=C(C)N(C(C)C)C(=O)C1(NC(=O)c1ccc(C(C)(C)C)cc1)C(F)(F)F (configuration not stated) -1.3%
O=C(CSc1nc(-c2ccccc2)nc2cc(=O)[nH]n12)Nc1ccccc1 12.8%
Cc1ccccc1C(=O)N1c2ncnn2C2(CCCCC2)[C@@H]2CCCC[C@@H]21 -14.3%
CCc1nc(-c2ccc(C)c(S(=O)(=O)N3CCN(c4ccc(C(C)=O)cc4)CC3)c2)no1 -27.4%
Cn1nnnc1SCCNCc1ccc(Cl)c(Cl)c1 -11.2%
COc1ccccc1NC(=O)C1=C(C)Nc2nc(-c3ccco3)nn2C1c1ccccc1F (configuration not stated) -7.83%
CCCc1cc(=O)[nH]c(Nc2ccc(OCC)cc2)n1 -15.2%
CCOc1ccc(C(=O)Nc2ccc(-n3nncc3-c3ccc(OC)cc3)cc2)cc1 -13.7%
COc1cccc(CCNC(=O)c2cnc3sc(N4CCOCC4)nn3c2=O)c1 -18.2%
Cc1cccc(S(=O)(=O)c2cn(C)c3cc(N4CCN(c5ccccc5)CC4)c(F)cc3c2=O)c1 7.65%
Cc1ccc(Cn2c(C)c3cnn(CC(=O)NCCc4ccc(Cl)cc4)c(=O)c3c2C)cc1 -4.62%
Cc1ccc(CN2CCCn3nc(C(=O)NCCc4cccc(C)c4)cc3C2=O)cc1 -15.1%
CCc1nc(SC)ncc1C(=O)N1CCN(c2cc(C)ccc2C)CC1 5.81%
CCOC(=O)c1c(S(=O)(=O)N2CCCC(C(=O)NCc3ccccc3OC)C2)c(C)n(C)c1C (configuration not stated) -21%
Cc1ccc(NC(=O)c2ccc(=O)n(Cc3ccccc3C)c2)c(C)c1 -10.1%
Cc1ccc(CN2CCCn3nc(C(=O)NCCc4ccccc4Cl)cc3C2=O)cc1 -8.46%
COc1cccc(CNC(=O)C2CCCN(c3nc4ccccc4n4cccc34)C2)c1 (configuration not stated) -43.9%
Cc1nn(C)c2c1c(-c1ccccc1)cc(=O)n2CC(=O)NC(C)C -7.68%
Cc1ccc(CNC(=O)c2ccc3c(O)c(S(=O)(=O)c4ccc(Cl)cc4)c(=O)[nH]c3c2)cc1 -19.8%
COc1ccc(CCNCc2ccc3c(c2)n(C)c(=O)n3C)cc1OC -13.7%
Cc1ccc(-c2nc(N3CCCC(C)C3)c3ccccc3n2)cc1 (configuration not stated) -8.92%
NC(=O)C1CCN(S(=O)(=O)c2ccc(N3CCCCS3(=O)=O)cc2)CC1 -7.12%
CCc1ccccc1NC(=O)CSc1nc2c(oc3ccccc32)c(=O)n1C -13%
CCCOc1ccc(C2CC(=O)Nc3c2c(=O)n(C)c(=O)n3C)cc1OC (configuration not stated) -11.7%
COCC(C)Nc1ncnc2c1cnn2-c1ccc(C)c(C)c1 (configuration not stated) -15%
COc1ccc(-n2nc(C(=O)NCc3ccc(F)cc3Cl)c3c4ccccc4n(C)c3c2=O)cc1Cl -15%
CCOc1ccc(N2CC(NC(=O)C3CC3)CC2=O)cc1 (configuration not stated) -1.41%
COc1ccc(C)cc1NC(=O)c1cc(S(=O)(=O)N2CCN(c3cccc(C)c3C)CC2)ccc1F 2.66%
Clc1ccc(Nc2c(-c3ccccc3Cl)nc3ccc(Cl)cn23)cc1 -2.32%
Cc1ccc(C(=O)Nc2cccc(C(=O)OCc3cc(=O)n4nc(C5CC5)sc4n3)c2)cc1 -11.3%
Cc1c(C(=O)Nc2ccccc2Cl)oc2ccc(S(=O)(=O)N3CCCCC3)cc12 1.26%
CCCn1c2ccc(F)cc2c2nnc(SCCN(CC)CC)nc21 -30.9%
Cc1cccc(C(=O)Oc2c(Sc3ccccc3)c(C)nn2C(C)(C)C)c1 -21.5%
Cn1c(=O)c(=O)n(C)c2cc(S(=O)(=O)N3CCN(c4ccccc4)CC3)ccc21 -10.3%
CC(NC(=O)c1ccc2c(c1)sc1nc(-c3ccccc3)cn12)C12CC3CC(CC(C3)C1)C2 (configuration not stated) -6.3%
CCCCN(CC)CCCNC(=O)Cn1ncc2c3ccccc3n(Cc3ccc(F)cc3)c2c1=O -4.34%
CCc1nn(CC(=O)Nc2ccc(NC(C)=O)cc2)c(=O)c2cc3sccc3n12 -15.1%
COc1ccc(CNC(=O)CSc2c3c(nc4ccc(Cl)cc24)CCCC3)cc1 0.972%
COc1ccc(S(=O)(=O)NCc2nc3nc(C)cc(C)n3n2)cc1OC -12.5%
